Out of some 52,000 compounds screened, about 4,300 (8.3%) were called active. Cut-off read from the data, not from the text of the source: active = survival mostly below about 52% (no sharp cut-off); inactive = mostly above about 56%. The list shows a part of the results.

In this experiment the test system is DeltatarO mutant. The experiment can be described thus: growth inhibition of S. aureus wild type versus tarO mutant, primary screen, teichoic acid synthesis inhibitors, RN4220, OD600 (AID 463173). The following applies: OD600, 18 h, hits give low values, screened at 18.75 µg/mL (by protocol).
`COc1ccc(-c2cnc(C)o2)cc1S(=O)(=O)Nc1ccc(C)c(N(C)C)c1`: the survival is inactive: 120%.
Regarding `CC1=NNC(=O)C1CC(=O)N/N=C/C=C/c1ccccc1` (stereo not drawn), the survival was inactive: 74%.
On to `CCOC(=O)Cn1c(=O)n(-c2ccccc2OC)c2nc(-c3ccccc3C)nc(C(N)=O)c21`, for which the survival is inactive: 79%.
For the compound `Cc1ccccc1C(=O)Nc1nnc(S(=O)(=O)N2CCCCCC2)s1`, the survival is active: 47%.
Regarding `COC(=O)CC1Oc2ccccc2-n2cc(-c3ccc(Cl)cc3)nc21` (stereo not drawn), the survival is inactive: 69%.
In the case of `Cc1ccc(Cl)cc1N1CCN(C(=O)C2CCN(Cc3nc(-c4cccc(Cl)c4)oc3C)CC2)CC1` it was active: -8%; in that of `COc1ccc(CNC(=O)Cc2csc3nc(-c4ccc(C)cc4)cn23)cc1`, inactive: 88%; in that of `Cc1cccc(-c2nc(SCC(=O)Nc3ccc4c(c3)OCCO4)c(-c3ccccc3)[nH]2)c1`, inactive: 58%.
Turning to `CCc1nn2c(=O)cc(COC(=O)C(c3ccccc3)c3ccccc3)nc2s1`, the survival is inactive: 91%.
With `CCOc1ccc2[nH]c(=O)c(CN(C(=S)NCc3ccco3)C3CCCC3)cc2c1`, the survival was inactive: 100%.
As for `Cc1cc(C)cc(N(CC(=O)NCc2ccccc2Cl)S(=O)(=O)c2c(C)noc2C)c1`, the survival is inactive: 95%.
Take `O=C(Cn1nc(-c2ccccc2)ccc1=O)Nc1ccc(N2CCN(C(=O)c3ccccc3)CC2)cc1`: the survival was inactive: 68%.
Take `O=C(c1c[nH]c2c(F)cccc2c1=O)N1CCNCC1`: the survival is inactive: 54%.
As for `CCOc1ccc(NC(=O)Cn2c(=O)n(CCC(=O)NCCc3ccccc3)c(=O)c3ccccc32)cc1`, the survival was inactive: 95%.
`CCCn1cc(S(=O)(=O)c2ccc(CC)cc2)c(=O)c2ccccc21`: the survival was inactive: 87%.
Turning to `Cc1ccc(Cn2c(=O)n(Cc3ccccc3Cl)c(=O)c3ccccc32)cc1`, the survival was active: 48%.
`CCCCc1nn2c(=O)cc(COC(=O)c3ccc(NC(=O)C4CCCCC4)cc3)nc2s1`: the survival was inactive: 91%.
In the case of `Cc1ccc2occ(-c3cc(-c4ccc(Cl)cc4)nc4c3COc3ccccc3-4)c(=O)c2c1` it was inactive: 86%.
Take `Cc1ccc(N(C)C(=O)C2CCCN(c3ncnc4c3nc3n4CCCCC3)C2)cc1C` (stereo not drawn): the survival was inactive: 117%.
`Cc1cccc(C(=O)Nc2ccccc2SCc2cc(=O)c3cccc(C)c3[nH]2)c1`: the survival was inactive: 84%.
To `Cc1nnc(N2CCN(c3ccccc3F)CC2)c2c1nnn2Cc1ccccc1` belongs inactive: 85%.
For the compound `CCOC(=O)c1ccc(NC(=O)CN2C(=O)COc3ccc(Cl)cc32)cc1`, the survival was inactive: 75%.
On to `CC1=C(C(=O)OC2CCCC2)C(c2ccccc2Cl)CC(=O)N1` (stereo not drawn), for which the survival is inactive: 70%.
`Cc1cccc(N2CCN(C3(c4ccccc4)C(=O)c4ccccc4C3=O)CC2C)c1` (stereo not drawn): the survival was inactive: 132%.
Consider `COc1ccccc1CNC(=O)c1cnn2c(C)c(Cc3ccc(F)cc3)c(C)nc12`, for which the survival is inactive: 69%.
Consider `Cc1ccc(C(c2sc3nc(-c4ccco4)nn3c2O)N2CCN(Cc3ccccc3)CC2)cc1` (stereo not drawn), for which the survival was inactive: 112%.
Turning to `Cc1ccc(-c2nc3cc(Cl)ccc3o2)cc1NC(=O)COc1ccc(F)cc1`, the survival is inactive: 53%.
For `Cc1cc(=O)[nH]c(SCC(=O)N(c2ccccc2)c2ccccc2)n1`, the survival is inactive: 54%.
As for `O=C(Cn1c(=O)oc2cc(S(=O)(=O)NC3CCCC3)ccc21)Nc1ccc(F)c(F)c1`, the survival is inactive: 73%.
Regarding `CCC(Oc1ccccc1)C(=O)Nc1nccs1` (stereo not drawn), the survival is inactive: 79%.
On to `COC(=O)c1cc2nc(C)cc(C(F)(F)F)n2n1`, for which the survival was inactive: 97%.
As for `Cc1ccc(Cl)cc1N1CCN(S(=O)(=O)c2cc3[nH]c(=O)c(=O)[nH]c3cc2C)CC1`, the survival is inactive: 67%.
To `Cc1c(C(=O)N2CCC(C)CC2)c(S(=O)(=O)N2CCN(c3ccc(Cl)cc3)CC2)c(C)n1C` belongs inactive: 68%; to `CCOc1ccccc1NC(=O)Cn1nnc(C(=O)Nc2ccc(C)c(C)c2)c1N`, inactive: 61%.
In the case of `CC(C)(C)OC(=O)N1CCC(c2c(C(=O)NC3CCCCC3)cnn2-c2cccc(Cl)c2)CC1` it was inactive: 69%.
As for `Cc1ccc(Cl)cc1N1CCN(C(=O)C2CCN(Cc3nc(-c4ccc(Cl)cc4)oc3C)CC2)CC1`, the survival is active: -9%.
In the case of `CC1CCCN(CCCNC(=O)CN2C(=O)CSc3ccc(S(=O)(=O)N4CCOCC4)cc32)C1` (stereo not drawn) it was inactive: 117%; in that of `COc1ccc(-c2nc3sc(CCNC(=O)C(=O)Nc4c(C)cccc4C)c(C)n3n2)cc1`, inactive: 87%; in that of `COc1ccc(N2CCN(C(=O)c3oc4ccccc4c3NC(=O)c3ccccc3OC)CC2)cc1`, inactive: 131%.
On to `CC(C)C(=O)OCc1cc(=O)n2nc(C3CCCCC3)sc2n1`, for which the survival was inactive: 74%.
As to `Cc1ccc(NC(=O)CSc2nnc(N)s2)c(C)c1`, the survival is inactive: 131%.
As to `COc1ccc(CNC(=O)C2CCN(S(=O)(=O)c3cccc4nonc34)CC2)cc1OC`, the survival is inactive: 78%.
As to `CCc1ccc(NCc2cc3cc4c(cc3n(CC(=O)Nc3ccc(F)cc3)c2=O)OCCO4)cc1`, the survival was inactive: 73%.
`Cc1ccccc1CS(=O)(=O)Cc1ccc(C(=O)NCc2ccc(F)cc2)o1`: the survival was active: 47%.
As for `COc1ccc(N(C)C(=O)c2ccc3c(c2)nnn3C)cc1`, the survival was inactive: 75%.
Consider `COc1cccc(NC(=O)CCNC(=O)Cn2ccc3ccccc3c2=O)c1`, for which the survival was inactive: 63%.
As to `Cc1ccc(NC(=O)Cn2c(=O)ccc3cc(S(=O)(=O)N4CCC(C)CC4)ccc32)cc1Cl`, the survival is inactive: 74%.
As to `COc1cccc(OCc2nc3ccccc3n2CCOc2cccc(C)c2)c1`, the survival is active: 44%.
As to `N#Cc1cnc(SCc2ccccc2)nc1N`, the survival was active: 39%.
In the case of `O=C(NCCc1ccccc1)c1cc(Sc2ccc(F)cc2F)nc2ccccc12`, the survival was inactive: 98%.
In the case of `COc1ccccc1N1CCN(C(CNC(=O)C(=O)NCCc2ccccc2)c2cccnc2)CC1` (stereo not drawn), the survival was inactive: 72%.
In the case of `Cc1ccccc1CN1CCCN(CC(=O)Nc2c(C)cccc2C)S1(=O)=O` it was inactive: 93%; in that of `Cc1cccc(CS(=O)(=O)c2ncc(Cl)c(C(=O)NCc3ccccc3)n2)c1`, active: -1%.
On to `COc1ccc(NS(=O)(=O)c2ccc3[nH]c4c(c3c2)CCCCCC4)cc1`, for which the survival was active: -2%.
To `CCC(C(=O)Nc1ccc(C(C)=O)cc1)n1c(C)c2cnn(-c3ccccc3)c(=O)c2c1C` (stereo not drawn) belongs inactive: 86%; to `Fc1ccc(CNc2nc(-c3ccccc3)cc(C(F)(F)F)n2)cc1`, active: 4%.
`Cn1ccnc1SCC(=O)Nc1cc(Cl)ccc1Cl`: the survival is inactive: 68%.
As for `CCCCNC(=O)CCc1c(C)nc2c(c(C)nn2-c2ccccc2)c1C`, the survival was inactive: 72%.
`CCN(CC)c1ccc(C2C(C(N)=O)=C(C)Nc3ncnn32)cc1` (stereo not drawn): the survival was inactive: 66%.
To `Cc1ccc(NC(=O)C2CCCN2S(=O)(=O)c2cccc3cccnc23)cc1C` (stereo not drawn) belongs inactive: 68%.
On to `Cc1cc(-n2c(C)nc3ccccc3c2=O)ccc1NC(=O)c1cccc([N+](=O)[O-])c1`, for which the survival is inactive: 92%.
For the compound `Cc1cccc(NC(=O)CSc2cc(C)c3ccccc3n2)c1`, the survival was inactive: 47%.
Turning to `CC(C)CNC(=O)C1=CC(c2ccc3c(c2)OCO3)=NS(=O)(=O)N1C`, the survival is inactive: 86%.
As to `Cc1ccc(Cn2c(CNC(=O)c3ccccc3Br)nc3cccnc32)cc1`, the survival was inactive: 120%.
For `COc1ccc(N2CCN(C(=O)Nc3cccc(C(F)(F)F)c3)CC2)cc1`, the survival is inactive: 150%.
As for `Cc1ccc(-n2c(=O)c3oc4ccccc4c3n(CC(=O)Nc3ccccc3)c2=O)cc1C`, the survival was inactive: 54%.
With `CCOc1cc(C2c3c(-c4ccccc4O)n[nH]c3C(=O)N2CCc2ccccc2)ccc1O` (stereo not drawn), the survival was active: 29%.
On to `CNC(=O)COc1ccc(Nc2nnc(-c3ccc(C)c(S(=O)(=O)NC(C)(C)C)c3)c3ccccc23)cc1`, for which the survival is inactive: 85%.
As to `COc1cc(NC(=O)Cn2cc(S(=O)(=O)c3ccccc3)c(=O)c3ccccc32)cc(OC)c1`, the survival was inactive: 57%.
In the case of `COc1ccc(-c2cc(C(F)(F)F)nc(SCCC(=O)Nc3c(C)cccc3C)n2)cc1`, the survival was inactive: 76%.
On to `CCc1ccc(C2c3c(oc4ccc(C)cc4c3=O)C(=O)N2c2nc(C)c(C)s2)cc1` (stereo not drawn), for which the survival is inactive: 178%.
On to `O=C(Cn1cnc2scc(-c3ccccc3)c2c1=O)NCc1ccco1`, for which the survival was inactive: 60%.
To `Cc1ccc(OCC(=O)Nc2ccc(C(=O)OCc3cc(=O)n4c(C)csc4n3)cc2)cc1` belongs inactive: 124%; to `COc1ccc(-c2onc(C)c2C)cc1S(=O)(=O)NC1CCC(C)CC1` (stereo not drawn), inactive: 84%; to `O=C(CN(c1ccccn1)S(=O)(=O)c1ccccc1)N=Nc1c(O)[nH]c2ccccc12`, inactive: 71%.
Regarding `O=C(CSc1nc(=O)[nH]c2c1CCC2)NCc1ccccc1`, the survival is inactive: 67%.
To `Cc1ccc(C(=O)COC(=O)CCC(=O)Nc2ccc(Oc3ccccc3)cc2)cc1C` belongs inactive: 70%; to `Oc1c(C(c2ccccc2)N2CCN(c3ccccc3)CC2)sc2nc(-c3ccco3)nn12` (stereo not drawn), inactive: 117%; to `COC(=O)CSc1nnc(CNc2ccc(Cl)cc2)n1-c1ccc(OC)cc1`, inactive: 86%.
For the compound `CCOC(=O)c1c(NC(=O)c2cc(-c3ccc(OC)cc3)on2)sc(C)c1C`, the survival is active: 45%.
In the case of `O=C(NCCc1ccccc1)C(=O)Nc1cccc(Br)c1` it was inactive: 68%; in that of `COc1ccc(CNC(=O)Cn2c(=O)oc3cc(S(=O)(=O)N4CCCC4)ccc32)cc1`, inactive: 93%.
As for `CCCOc1ccc(C(=O)Nc2c(C(=O)c3ccc(C)cc3)oc3ccccc23)cc1`, the survival was inactive: 70%.
With `Cc1cccc(S(=O)(=O)c2cn(Cc3ccccc3)c3cc(N4CCCCC4C)c(F)cc3c2=O)c1` (stereo not drawn), the survival is inactive: 79%.
`Cc1cc(C(F)F)n2nc(C(=O)Nc3ccc(F)c(Cl)c3)nc2n1`: the survival was inactive: 78%.
Take `CCc1nc2ccc(C(=O)N3CCN(c4ccc(Cl)cc4)CC3)cc2nc1CC`: the survival was inactive: 99%.
For the compound `Cc1ccc(Cl)cc1N1CCN(C(=O)c2ccc(C)c(-n3c(C)nc4cccnc43)c2)CC1`, the survival was inactive: 113%.
With `COc1ccc2c(C)c(CCC(=O)NCCc3ccc(Cl)cc3)c(=O)oc2c1`, the survival was inactive: 52%.

These data come from PubChem BioAssay AID463173 (ICCB-Longwood Screening Facility, Harvard Medical School, 2010).
